According to PubChem BioAssay AID743279 (National Center for Advancing Translational Sciences (NCATS), 2014):
Where “and” joins values, the source holds several entries; their conditions need not be identical. Equal entries are not always repeated. About 17,000 (4.7%) of roughly 360,000 compounds were called active. The shares of active, inactive and inconclusive entries below differ from those in the screen. No stated cut-off is given here; in the data, active means activity change below about -50%; inconclusive means mostly about -30% to -49%; inactive means weaker than that.

Experiment: qHTS for Inhibitors of Inflammasome Signaling: IL-1-beta AlphaLISA Primary Screen
Conditions: THP-1 LPS/ATP IL-1B secretion, 16 h; at 57.5 µM, active compounds read low
Method in brief: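 Secreted IL-1B measured by AlphaLISA bead assay after 16 h compound exposure of THP-1 cells; compounds (final up to 57.5 uM) added 1 h before LPS (250 ng/mL) and ATP (1.25 mM) stimulation; lower signal means less secretion.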
On the % scale 0 is the no-effect control and ±100 the full control effect.

Activity change, active:
Cc1c(-c2ccccc2)nc2ccccc2c1C(=O)Oc1ccc([N+](=O)[O-])cc1 -50.9%, CN(C)CCCN(C(=O)/C=C/c1cccs1)c1nc2ccc(F)cc2s1 -104%, Cc1ccc(NC(=S)Nc2ccc(OC(F)F)c(Cl)c2)cc1F -95%, O=S(=O)(c1ccccc1)N1CCN(c2ccnc3cc(Cl)ccc23)CC1 -85.6%, O=C(Nc1nc2ccc(F)cc2s1)c1ccc([N+](=O)[O-])o1 -101%, CCCCCCCCCCCCCCCC[n+]1cccc(C(=O)N(CC)CC)c1 -65.3% and -63.1%, CC(C)(C)OC(=O)NCCCCCc1nnc(SCc2ccccc2F)o1 -51.4%, Cc1cc(OCC(=O)NCC(c2cccs2)N2CCOCC2)ccc1C(C)C (configuration not stated) -57.3%, CCOc1ccc(NC(=O)C2CCN(S(=O)(=O)c3cccs3)CC2)cc1 -58.4%, COc1ccc(N=C2SC(CC(=O)Nc3ccccc3)C(=O)N2Cc2ccccn2)cc1 (configuration not stated) -67%, O=C(NC(=S)NC(c1ccccc1)c1ccncc1)c1ccccc1 (configuration not stated) -79.4%, COc1ccc(CNc2ccc3c(c2)ncn3-c2ccccc2OC)cc1 -90.6%, CCN(CC)C(=O)CSc1nc2ccc(NC(=O)CSc3nccn3C)cc2s1 -53%, CCOC(=O)C1=Nc2ccccc2C1=[N+]=[N-] -71.1%

Activity change, inactive:
CCOC(=O)N1CCN(c2cc(N(C)CCO)c([N+](=O)[O-])c3nonc23)CC1 11.4%, CCC(C)N(C(=O)Cn1nnc(-c2ccc(F)cc2)n1)C1CCS(=O)(=O)C1 (configuration not stated) -0.609%, CC[C@H](C)[C@@H]1NC(=O)[C@H]([C@@H](C)CC)NC(=O)[C@@H](CC(C)C)NC(=O)[C@H](Cc2ccccc2)NC(=O)[C@H](Cc2ccccc2)NC(=O)[C@@H]2CCCN2C(=O)[C@@H]2CCCN2C(=O)[C@H](C(C)C)NC(=O)[C@H](CC(C)C)NC1=O -15%, c1ccc2c(c1)CCNC2c1ccncc1 (configuration not stated) 17.9%, CC(C)CC(=O)NC(=S)NNC(=O)c1ccc(NC(=O)C2CCCCC2)cc1 12.2%, Cc1ccc(C(=O)CSc2nnc3c4ccccc4nc(C(C)(C)C)n23)cc1 -13%, COc1cc2cc3c(N)c(C(=O)Nc4sc(C)c(C)c4C#N)sc3nc2cc1OC 11.3%, CCOC(=O)c1[nH]c(CSc2nnc(-c3ccc(OC)cc3)o2)c(C(=O)OCC)c1C -7.62%, Cc1cc(NCCCOC(C)C)n2c(nc3ccccc32)c1C#N -6.69%, Cn1ccc2c(-c3ccc(C(=O)O)cc3)cc3c(c21)C1CCC3O1 (configuration not stated) 18.2%, CC(C)(C)c1nc2ccccc2c(=O)n1N1C(=O)c2ccccc2C1=O -1.36%, CN(C)c1ccc(N2C(=NC(=O)C3CCCO3)SC3CS(=O)(=O)CC32)cc1 (configuration not stated) -5.15%, C=CCn1c(C2CCCCC2)n[nH]c1=S 1.19%, Nc1ncc(Br)cc1S(=O)(=O)NCCC(=O)N1CCN(c2ccccc2)CC1 5.8%, CCNC(=S)NNC(=O)c1csc(CC)c1 -25.1%, O=C(COc1ccccc1)NCC(=O)N/N=C/c1ccc(O)cc1O 120%, COc1cc(CC(=O)Oc2ccc3c(c2)OCO3)cc(OC)c1OC 2.75%, O=C(Nc1ccsc1C(=O)N1CCCC1)c1ccccc1 -7.16%, CCN(CC)CCN(C(=O)c1ccc(Br)s1)c1nc2cc3c(cc2s1)OCO3 -11.2%, CN(CC(=O)Nc1c(Cl)cccc1Cl)CC(=O)N1CCc2ccccc21 8.23%, O=C(Cc1ccccc1)NNC(=S)NC(=O)c1cccs1 69.2%, Cc1cccc(S(=O)(=O)N2CCn3cccc3C2C)c1 (configuration not stated) -10.2%, COc1ccc(C(=O)CSc2nnc(CNC(=O)c3ccccc3F)n2C)cc1OC 8.21%, CCOc1ccc(OCCOCCN2CCc3ccccc3C2)cc1 0.302%, O=C1Nc2ccccc2C(=O)N(C2CCCC2)C1C(=O)NC1CC1 (configuration not stated) -5.93%, Cc1ccc(S(=O)(=O)NCc2ccccc2)cc1C(=O)N1CCN(S(=O)(=O)c2ccccc2)CC1 14.4%, COc1ccc(C(=O)N[C@H](C(=O)NCc2ccco2)C(C)C)cc1 9.51%

Activity change, inconclusive:
Cn1c(SCc2ccc(Br)cc2)nnc1-c1ccccn1 -45.7%, Cc1cc(C)n(Cc2ccc(C(=O)Nc3cccc(Br)c3)o2)n1 -39.7%, COc1cccc(N2CCN(Cc3nc(N)nc(Nc4ccccc4OC)n3)CC2)c1 -35%, Cc1nnc(Nc2ccc(Cl)cc2)n(N)c1=O -32.2%, COc1ccc2c(c1)c(CCNNC(=O)C(C)(C)C)c(C)n2C(=O)c1ccc(Cl)cc1 -45.7%, Fc1ccc(CNCc2cccc(Br)c2)cc1 -32.4%, Nc1ccc(CC(N)c2csc(Nc3nncc4ccccc34)n2)cc1 (configuration not stated) -46.7%, CCC1CCCCN1CCCNC(=O)c1ccc2nc(N3CCCCC3)sc2c1 (configuration not stated) -42%, CN(CCC#N)C(=O)COC(=O)c1ccc2[nH]c3c(c2c1)CCCC3 -35.6%, CCCCNC(=O)Nc1cc(C(F)(F)F)c[nH]c1=O -36.6%, CCOC(=O)/C(=C/c1c2ccccc2cc2ccccc12)NC(=O)c1ccccc1 -36.6%, COc1cccc(CC2(CO)CCCN(Cc3cn[nH]c3-c3ccc(F)cc3)C2)c1 (configuration not stated) -36.1%, CCc1ccc(N(C2C=CS(=O)(=O)C2)S(=O)(=O)c2ccc(C)cc2)cc1 (configuration not stated) -31.5%, CCn1c(SCC(=O)OC)nnc1-c1ccncc1 -36.5%, COc1ccc(S(=O)(=O)N2CCC(C(=O)Nc3ccc(F)cc3)CC2)c2cccnc12 -32.3%, CC(=O)Nc1ccc(/C=C(\C#N)C(=O)NC2CCCCC2C)cc1 (configuration not stated) -30.2%, Nc1nc2c(s1)CC(c1ccccc1)CC2 (configuration not stated) -42.6%, CCc1ccc2[nH]c(=O)c(C(c3nnnn3CCOC)N3CCN(c4ccccc4)CC3)cc2c1 (configuration not stated) -44.4%, COc1ccc(-c2csc(NC(=O)CS(=O)(=O)c3ccccc3)n2)cc1OC -36.3%, COc1ccc(CN(C)C(=O)C23CC4CC(CC(Cl)(C4)C2)C3)c(OC)c1OC -30.8%, O=C(Nc1cccc(C(F)(F)F)c1)C(Sc1n[nH]c(=O)[nH]c1=O)c1ccccc1 (configuration not stated) -42.4%, COc1ccc(CN2C(=O)CN(S(C)(=O)=O)CC2(C)C(=O)NC(C)C)cc1 (configuration not stated) -31.6%, COc1ccc(S(=O)(=O)N2CCCCC2)cc1NC(=O)c1cccnc1SC -30%, COc1cc(OC)c(NC(=O)c2ccc3c(SCC(=O)O)c4c(nc3c2)CCCC4)cc1Cl -32.5%, O=C(Nc1nn(Cc2ccc(Cl)cc2)cc1Br)c1ccc(COc2ccccc2Cl)o1 -42.1%, C/C(=N/Oc1nc(C)cc(C)n1)c1ccccc1 -34%, C=CCOc1cccc(C(=O)/C=C2/C(=O)Nc3ccccc32)c1 -46.2%, COCCCNC(=S)NCCCNc1nc2cc(C)cc(C)c2cc1C#N -49.5%, Cc1ccc(-c2ccc(=O)n(CCC(=O)N3CCN(c4cccc(C)c4)C(C)C3)n2)cc1 (configuration not stated) -30.2%, O=C(CCn1c(=O)[nH]c2ccsc2c1=O)Nc1ccc(F)c(F)c1 -44.2%, O=C(CSc1nnc(-c2ccco2)n1-c1ccccc1)N1CCN(C(=O)c2ccco2)CC1 -33%, COc1ccc(/C=N/NC(=O)c2nnn(-c3nonc3N)c2-c2cccs2)cc1OC -32%, CCOC(=O)Cc1csc(NC(=O)c2ccc(S(=O)(=O)N3CCOCC3)cc2)n1 -40.9%, O/N=C/c1ccc(OCc2ccccc2F)c(Cl)c1 -48%, CN(c1ccccc1)S(=O)(=O)c1cccc(NC(=O)c2cccc(C#N)c2)c1 -36.5%, COc1ccc(NC(=O)Cc2cccc(F)c2)cc1S(=O)(=O)Nc1ccccc1Cl -43%, CC(=O)Nc1cccc(OCc2cccc([N+](=O)[O-])c2)c1 -38.5%, CC1CCN(CCOCCOc2ccccc2-c2ccccc2)CC1 -41.5%, Cc1cc(C)c2c(CN3CCOCC3)cc(=O)oc2c1 -38.5%, CCCCCCC(O)(CCN1CCCCC1)c1ccccc1 (configuration not stated) -40.7%, Cc1ccc(-n2c(O)c(C=NC3CCS(=O)(=O)C3)c3ccccc3c2=O)cc1C (configuration not stated) -32.2%, O=C(CCCOC(=O)c1ccc(O)cc1O)c1ccccc1 -30.2%, Cc1cc2c(cc1C)N(C(=O)CSc1nncn1C)C(C)(C)c1ssc(=S)c1-2 -42.8%, Cc1cc(Cl)ccc1-c1nc(NCCN(C)C)nc2ccsc12 -43%, CCN(CC)S(=O)(=O)c1cccc(NC(=O)c2ccc(-n3nc(C)cc3C)cc2)c1 -39.1%, COc1ccc(C(=O)NC2CCC(O)CC2)cc1S(=O)(=O)NCc1ccc(Cl)cc1 (configuration not stated) -30.9%
